Experimental data reported in ChEMBL document CHEMBL1201862, “PubChem BioAssay data set” (2004).
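Interpolation was linear, between the two tested concentrations surrounding the appropriate level; five concentrations were tested over 48 hours in 96-well plates. GI50: concentration for 50% inhibition of growth.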 Calls of active or inactive are those of the source. No stated cut-off is given here; in the data, active = GI50 up to about 1.1 µM and inactive = higher.

Assays:
Assay in all cases: NCI anticancer screen, dose series, 48 h
SN12C = tested on: SN12C
TK-10 = tested on: TK-10
OVCAR-3 = tested on: OVCAR-3
OVCAR-5 = tested on: OVCAR-5
XF498 = tested on: XF498
ACHN = tested on: ACHN
NCI-H226 = tested on: NCI-H226
RXF 393 = tested on: RXF 393
DLD-1 = tested on: DLD-1
UO-31 = tested on: UO-31
MDA-N = tested on: MDA-N
HCT-116 = tested on: HCT-116
DMS-114 = tested on: DMS-114
SF-268 = tested on: SF-268
HOP-62 = tested on: HOP-62
HT-29 = tested on: HT-29
SF-295 = tested on: SF-295
SW-620 = tested on: SW-620
MCF7 = tested on: MCF7
SK-MEL-28 = tested on: SK-MEL-28
SK-MEL-5 = tested on: SK-MEL-5
NCI-H23 = tested on: NCI-H23
MOLT-4 = tested on: MOLT-4
HOP-18 = tested on: HOP-18
SR = tested on: SR
U-251 = tested on: U-251
SK-MEL-2 = tested on: SK-MEL-2
PC-3 = tested on: PC-3
RPMI-8226 = tested on: RPMI-8226
DU-145 = tested on: DU-145
MDA-MB-435 = tested on: MDA-MB-435
UACC-257 = tested on: UACC-257
OVCAR-4 = tested on: OVCAR-4
COLO 205 = tested on: COLO 205
786-0 = tested on: 786-0
EKVX = tested on: EKVX
DMS-273 = tested on: DMS-273
T47D = tested on: T47D
SF-539 = tested on: SF-539
KM12 = tested on: KM12
SNB-75 = tested on: SNB-75
NCI/ADR-RES = tested on: NCI/ADR-RES
IGROV-1 = tested on: IGROV-1
LXFL 529 = tested on: LXFL 529
SK-OV-3 = tested on: SK-OV-3
Malme-3M = tested on: Malme-3M
HCC 2998 = tested on: HCC 2998
A498 = tested on: A498
HOP-92 = tested on: HOP-92
NCI-H460 = tested on: NCI-H460
CCRF-CEM = tested on: CCRF-CEM
UACC-62 = tested on: UACC-62
KM-20L2 = tested on: KM-20L2
M14 = tested on: M14
K562 = tested on: K562
CAKI-1 = tested on: CAKI-1
A549 = tested on: A549
MDA-MB-231 = tested on: MDA-MB-231
M19-MEL = tested on: M19-MEL
LOX IMVI = tested on: LOX IMVI
HL-60 = tested on: HL-60
Hs-578T = tested on: Hs-578T
OVCAR-8 = tested on: OVCAR-8
NCI-H522 = tested on: NCI-H522
HCT-15 = tested on: HCT-15
SNB-19 = tested on: SNB-19
BT-549 = tested on: BT-549

## COc1c(O)cc2c(c1OC)-c1ccc(SC)c(=O)cc1C(NC(C)=O)CC2 (configuration not stated)
SN12C
  GI50: active: 62.5 nM
TK-10
  GI50: inactive: 26900 nM
OVCAR-3
  GI50: active: 17.6 nM
OVCAR-5
  GI50: inactive: 1140 nM
XF498
  GI50: active: < 10 nM
ACHN
  GI50: active: 120 nM
NCI-H226
  GI50: active: 89.1 nM
RXF 393
  GI50: active: 130 nM
DLD-1
  GI50: active: 12.7 nM
UO-31
  GI50: inactive: 1510 nM
MDA-N
  GI50: active: 18.2 nM
HCT-116
  GI50: active: 15.5 nM
DMS-114
  GI50: active: < 10 nM
SF-268
  GI50: active: 18.3 nM
HOP-62
  GI50: active: 25.9 nM
HT-29
  GI50: active: 15.2 nM
SF-295
  GI50: active: 19.9 nM
SW-620
  GI50: active: 15.5 nM
MCF7
  GI50: active: 26.2 nM
SK-MEL-28
  GI50: active: 662 nM
SK-MEL-5
  GI50: active: 15.5 nM
NCI-H23
  GI50: active: 19.4 nM
MOLT-4
  GI50: active: 18.9 nM
HOP-18
  GI50: inactive: > 100000 nM
SR
  GI50: active: 15.3 nM
U-251
  GI50: active: 16.8 nM
SK-MEL-2
  GI50: active: 22.1 nM
PC-3
  GI50: active: 31.3 nM
RPMI-8226
  GI50: active: 19.2 nM
DU-145
  GI50: active: 35.6 nM
MDA-MB-435
  GI50: active: 18.5 nM
UACC-257
  GI50: inactive: 1550 nM
OVCAR-4
  GI50: inactive: 63700 nM
COLO 205
  GI50: active: 17.2 nM
786-0
  GI50: active: 23.3 nM
EKVX
  GI50: inactive: 29600 nM
DMS-273
  GI50: active: < 10 nM
T47D
  GI50: inactive: > 100000 nM
SF-539
  GI50: active: 18.8 nM
KM12
  GI50: active: 14.3 nM
SNB-75
  GI50: active: 19.9 nM
NCI/ADR-RES
  GI50: active: 705 nM
IGROV-1
  GI50: active: 18.1 nM
LXFL 529
  GI50: active: < 10 nM
SK-OV-3
  GI50: active: 20.5 nM
Malme-3M
  GI50: active: 29.8 nM
HCC 2998
  GI50: active: 25.6 nM
A498
  GI50: active: 28.6 nM
HOP-92
  GI50: active: 60.7 nM
NCI-H460
  GI50: active: 20.3 nM
CCRF-CEM
  GI50: active: 19.4 nM
UACC-62
  GI50: active: 15.2 nM
KM-20L2
  GI50: active: 10.9 nM
M14
  GI50: active: 18.2 nM
K562
  GI50: active: 15 nM
CAKI-1
  GI50: active: 50.9 nM
A549
  GI50: active: 38.2 nM
MDA-MB-231
  GI50: active: 58.9 nM
M19-MEL
  GI50: active: < 10 nM
LOX IMVI
  GI50: active: < 10 nM
HL-60
  GI50: active: 14.8 nM
Hs-578T
  GI50: active: < 10 nM
OVCAR-8
  GI50: active: 23.7 nM
NCI-H522
  GI50: active: 16.2 nM
HCT-15
  GI50: 68.7 nM
SNB-19
  GI50: active: 62.1 nM
BT-549
  GI50: active: < 10 nM
